In the supplement of paper PMC10126150:
Values marked as one replicate rest on one cluster of the flow cell; about a third of the high ones do not repeat.

Test system: ATP
Experiment: switch fluorescence ratio, 500 uM ATP over buffer (Cy3 cluster intensity, sum of 5 cycles each) (fold (ratio)); higher = stronger signal-on switching upon ATP binding; sequences stand for … in TCGTCGGCAGCGTCAGATGTGTATAAGAGACAGTTTTTTTTTTTTTTTTTTTTTTTTT…TC
Details: aptamer strand: ATP DNA aptamer (quencher-CACCTGGGGGAGTATTGCGGAGGAAGG + anchor), 100 nM annealed; ATP concentration: 500 uM; one replicate
In short: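 Switching-strand clusters labelled with Cy3 on a modified Illumina MiSeq flow-cell were annealed to 100 nM quencher-labelled ATP aptamer, imaged in selection buffer, and re-imaged after 15 min with 500 uM ATP at 22 °C. This was done over five cycles with NaOH stripping and re-annealing in between. The fluorescence ratio is summed target-cycle over summed buffer-cycle Cy3 intensity per cluster, averaged per switch-domain sequence, excluding clusters outside 100-1000 RFU.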
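Also: ATP exposure 15 min at 22 °C before imaging.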

Row | Sequence | switch fluorescence ratio
1 | AGGCGCAAAA | 1.05
2 | GAAGAAGATA | 0.953
3 | GGATACGGAG | 1.01
4 | GGTGAGACGT | 1.09
5 | CTCGAAACG | 0.994
6 | GATCAACAAA | 0.973
7 | ACATTGTGCT | 0.938
8 | AACCTGGGAA | 1.01
9 | AGGCTAAAAG | 0.986
10 | GCATTCTAG | 1.05
11 | TTATCAGAGG | 1.05
12 | AAGATATAGG | 1.02
13 | ATAGGCATTG | 0.982
14 | ACTGTCATCT | 1.01
15 | TACTAGAATT | 1
16 | GACCATGGCT | 0.984
17 | CGATGCTCAC | 4.12
18 | GTTAAGGGGG | 0.995
19 | TTATATGCGT | 1.03
20 | TATTGATTAG | 0.992
21 | TTCATGGTGA | 1.01
22 | AACGTGCCGG | 1
23 | TGAGTACGGT | 1.01

Row | Sequence | switch fluorescence ratio
24 | AGTCATGCCG | 1.05
25 | CTAACTTATC | 1
26 | CGTTTACTG | 0.987
27 | ATGTACTATA | 1.08
28 | TCTTTTTGAG | 0.959
29 | TCGAGTTAGG | 0.995
30 | CGATACTCTG | 1.1
31 | TCAACATCTA | 1.02
32 | CTACGTAGCC | 1.2
33 | TCCAGCCGTT | 0.976
34 | CTTGCATCT | 0.994
35 | TCCCTGATCT | 1.05
36 | TGCAAGTCTG | 0.996
37 | GTTCATGTTG | 0.986
38 | AGGTGTAAT | 0.994
39 | CCCCGGGTTA | 1.37
40 | GACCGGGAGT | 0.976
41 | ACACAG | 1.03
42 | TGAGGCTGGT | 0.985
43 | GGACGCGTAG | 0.998
44 | AAGATCACCG | 1.04
45 | GCTTCCGCGG | 1.37
46 | TGGATATCCA | 1.02

Row | Sequence | switch fluorescence ratio
47 | CAAGTCAACG | 1.04
48 | CCTAGGTAAG | 1.03
49 | GATAATGATC | 1.01
50 | CGGGGAACCG | 0.984
51 | TGAGGCAACG | 1.04
52 | CCTGATTTTC | 0.996
53 | GACCTCCCAC | 2.55
54 | TCCTGGCACG | 1.11
55 | CCCAAGTGCT | 1.3
56 | TTGTCGTAAA | 0.978
57 | GTGGTTATGT | 0.988
58 | CGACGCTGTA | 1.4
59 | GAAAATGATC | 1.06
60 | GGATTGTAGT | 1.03
61 | AAGACTCATT | 1
62 | ACCACTATGT | 1.04
63 | AGGCAGGTTC | 0.987
64 | TATATCATCG | 0.987
65 | CACTCTGGTG | 1.27
66 | GATGTCTTTA | 0.964
67 | GTTTCTCGCA | 1.28
68 | CGGTAGGTGT | 1.06
69 | CGAGCGTTTC | 1.13

Row | Sequence | switch fluorescence ratio
70 | CTGCACTAGG | 1.23
71 | AAAATTCCTA | 1.03
72 | CGCCGATAGA | 1.04
73 | TCAGGAGCGG | 0.869
74 | AATAAGCCTA | 1.03
75 | TCGGGTCTC | 0.987
76 | TGTCCTAAGT | 0.975
77 | CCTTGAAGAG | 1.04
78 | TTGATCGTTG | 1.02
79 | TGTGTGTTG | 1.07
80 | GCCACGCCGG | 1.03
81 | TGCATTTGTT | 0.993
82 | GTTAGGAAAG | 1
83 | TCCTCGGCTT | 2.48
84 | CTACCATTTA | 1.01
85 | TTGAGTAGAA | 1.01
86 | ATCCGGGGGC | 1.16
87 | TTTGAGTTAT | 1.01
88 | CCGTATGGCC | 1.06
89 | GGCGCGGGCT | 0.933
90 | CAGAGAAAAT | 0.984
91 | TGCACGATGT | 1.04
92 | GGGACAGTGA | 1.02

Row | Sequence | switch fluorescence ratio
93 | ATCGTGGTTT | 0.954
94 | AAAATACGAT | 1.33
95 | CGCTGGTTTT | 1
96 | GTTATACGTC | 0.991
97 | AGGAGTAAAT | 1.02
98 | GTATCAGTTG | 0.991
99 | ACATTATACA | 1.08
100 | TGAGTCGTGG | 1.01
101 | CGTGCAAGGT | 1.09
102 | AGGGCAGG | 1.08
103 | ATGCTAGCCT | 1.08
104 | CAAAAGCCTC | 0.971
105 | CCGCGCCGCA | 1.58
106 | CGTGGGATTT | 1
107 | GATGTTATG | 0.97
108 | TCGGGTGAGG | 1.05
109 | GACAACATGG | 1.06
110 | CCGCTGGCAG | 2.08
111 | TTGGGATTTG | 0.973
112 | GGCGATCGT | 0.981
113 | TGCCCGCATA | 2.1
114 | GTGGCTTTG | 0.987
115 | GCGTTTTCTC | 0.979

Row | Sequence | switch fluorescence ratio
116 | TCTACACATT | 1.1
117 | TTGCACATTC | 1.11
118 | TGGCCCATCG | 0.993
119 | CATCTGTACT | 1.07
120 | TAGAAAACGG | 1.02
121 | CTTGGGGTG | 0.998
122 | CCTGTCTGTT | 1
123 | CGGTCCGAGG | 1.04
124 | TAGTTTGAAG | 0.999
125 | TACGAGAAGA | 1.03
126 | TCTTTCCGAT | 1.11
127 | TAGGATAAAG | 0.988
128 | GACCAGGATT | 0.988
129 | TGGTTGATTA | 0.996
130 | TGAGGGTGT | 1.12
131 | TCTGATCAAT | 1.13
132 | GGTCATTAGT | 1.01
133 | CAATAACGAT | 1.01
134 | GGTCATTTGG | 1.02
135 | TACACTACA | 1.32
136 | GGTGGCGTCA | 0.937
137 | CGCACCGAAG | 1.18
138 | CTGGGTTGCT | 1.02

Row | Sequence | switch fluorescence ratio
139 | AATCTGCTCT | 1.02
140 | ATGAACGATA | 1.06
141 | TAAGTATCCT | 1.05
142 | ATTCAGTTTT | 0.978
143 | GATTCAAGTA | 0.94
144 | TAAACC | 1.08
145 | TTGGCAAGCG | 1.04
146 | GGCGTTTGTG | 0.983
147 | AGGTTCAGAT | 0.975
148 | CTTATGTCAG | 0.924
149 | ATTTCATTGT | 0.972
150 | TGAGTGGCGG | 0.946
151 | CCATGCTAGT | 1.02
152 | TAGGCGAATG | 0.954
153 | CCTTAATTAT | 1
154 | AAGCGCTGCT | 1
155 | AGATACCAGT | 1.01
156 | AAAGGTGTTA | 1.02
157 | AAGTAGGCT | 0.966
158 | AGTAACTCG | 0.966
